The results in this text go back to the supplement of paper PMC4723716.

± gives the uncertainty stated by the source. Over roughly 9,900 compounds, “viability index relative to DMSO control” has its median near 1; the lowest 2% begin near 0.85. This is one part of the list.

The test deals with Plasmodium falciparum NF54 stage V gametocytes. Description: viability index relative to DMSO control (fraction); higher = less gametocyte killing. Conditions: 2.5 µM, library set: Broad Institute DOS, incubation time: 72 h. A digest of the protocol: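 Gametocytes (P. falciparum NF54, stage V) were treated with compound at 2.5 µM for 72 hr at 37°C in low oxygen, in serum-free medium at 0.75% gametocytemia and 1.25% hematocrit. Counts of 20–70 µm2 red particles, taken from one field per well after MitoTracker Red CMXRos with saponin, were divided by the plate mean of solvent-only wells. This ratio is the viability index.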
Molecule `C[C@H](CO)N1C[C@H](C)[C@@H](CN(C)S(=O)(=O)c2cccc(F)c2)Oc2ncc(C#CC3(O)CCCC3)cc2C1=O` displayed a viability index of 0.941 ± 0.062.

For the molecule `C[C@H]1COCc2cnnn2CC[C@H](Cc2ccccc2)C(=O)N1`, the viability index was 1.1 ± 0.0052.

Molecule `CO[C@@H](CN(C)C(=O)c1cnccn1)[C@H](C)CN([C@H](C)CO)S(=O)(=O)c1ccccc1` had a viability index of 1.1746 ± 0.0011.

Take `C[C@H](CO)N1C[C@H](C)[C@@H](CN(C)Cc2ccc(Oc3ccccc3)cc2)Oc2c(NS(=O)(=O)c3cn(C)cn3)cccc2C1=O`: the viability index is 1.13 ± 0.12.

As to `O=C(c1ccccn1)N1C[C@H]2[C@@H](c3ccccc31)[C@H](CO)N2C(=O)C1CCCCC1`, the viability index came out at 1.027 ± 0.007.

With `O=C(C[C@H]1C[C@H]2c3cc(NS(=O)(=O)c4ccccc4)ccc3O[C@H]2[C@@H](CO)O1)N1CCOCC1`, the viability index turned out to be 0.985 ± 0.031.

Molecule `COc1cccc(C#Cc2ccc3c(c2)[C@H]2[C@H](CCN2C(=O)Cc2ccccc2)[C@@H](CO)N3C)c1` had a viability index of 1.07 ± 0.025.

Take `COCC#Cc1ccc([C@H]2[C@H]3CN(C(=O)Nc4ccccc4F)CC(=O)N3[C@H]2CO)cc1`: the viability index amounted to 1.01 ± 0.062.

The molecule `COc1cccc(NC(=O)N2C[C@H](O)COC[C@@H]3O[C@@H](CC(=O)N(C)C)CC[C@H]32)c1` displayed a viability index of 1.03 ± 0.12.

On to `N#C[C@@H]1[C@H](c2ccccc2-c2ccc(F)cc2)[C@H](CO)N1C(=O)Cc1cccnc1`, for which the viability index was found to be 1.17 ± 0.12.

`CCCC(=O)Nc1ccc2c(c1)C(=O)N(C)[C@H]1CC[C@@H](CC(=O)N3CCCCC3)O[C@H]1CO2`: the viability index came out at 1.19 ± 0.022.

As to `C[C@@H]1CCCCO[C@@H](CN(C)Cc2ccc(C(=O)Nc3ccccc3N)cc2)[C@@H](C)CN([C@H](C)CO)C(=O)c2cc(NC(=O)CCC(F)(F)F)ccc2O1`, the viability index was 1.06 ± 0.093.

In turn, `CCc1cnc(N2[C@H](C#N)[C@@H](c3ccc(C4=CCCCC4)cc3)[C@@H]2CO)s1` registered a viability index of 1.08 ± 0.095.

Turning to `CCCNC(=O)Nc1ccc2c(c1)OC[C@@H](C)N(S(C)(=O)=O)C[C@H](C)[C@@H](OC)CN(C)C2=O`, the viability index came to 1.02 ± 0.045.

`CN1c2ccc(Br)cc2[C@@H]2[C@@H](CCN2C(=O)C2CCC2)[C@@H]1CO` registered a viability index of 1.124 ± 0.0024.

On to `C[C@H](CO)N1C[C@H](C)[C@@H](CN(C)C(=O)NC2CCCC2)Oc2cc(-c3cncnc3)ccc2S1(=O)=O`, for which the viability index is 0.995 ± 0.034.

Consider `C[C@@H]1CN([C@@H](C)CO)C(=O)c2cccc(NS(=O)(=O)c3ccc(F)cc3)c2O[C@H]1CN(C)Cc1ccc(Cl)c(Cl)c1`, for which the viability index was found to be 0.986 ± 0.044.

In turn, `CCS(=O)(=O)Nc1ccc2c(c1)C(=O)N(C)[C@H]1CC[C@H](CC(=O)N[C@@H]3CCN(Cc4ccccc4)C3)O[C@H]1CO2` yielded a viability index of 1.09 ± 0.072.

For the molecule `O=C(C1CC1)N1C[C@H]2[C@@H](c3ccccc31)[C@@H](CO)N2C(=O)c1ccccc1`, the viability index came to 0.985 ± 0.043.
